Laboratory results published in article PMC4336329 (PLoS ONE, 2015).
The whole screen tested about 310,000 compounds, of which about 2,200 (0.71%) showed an effect of 50% or more. The effect is printed as a negative number. Some of the results follow.

Each compound was assayed against human ether-à-go-go-related gene (hERG) potassium channel (human, UniProt Q12809) (assay: primary screen, population patch clamp on CHO cells stably expressing hERG).
human ether-à-go-go-related gene (hERG) potassium channel, sequence (Q12809 whole entry, looked up): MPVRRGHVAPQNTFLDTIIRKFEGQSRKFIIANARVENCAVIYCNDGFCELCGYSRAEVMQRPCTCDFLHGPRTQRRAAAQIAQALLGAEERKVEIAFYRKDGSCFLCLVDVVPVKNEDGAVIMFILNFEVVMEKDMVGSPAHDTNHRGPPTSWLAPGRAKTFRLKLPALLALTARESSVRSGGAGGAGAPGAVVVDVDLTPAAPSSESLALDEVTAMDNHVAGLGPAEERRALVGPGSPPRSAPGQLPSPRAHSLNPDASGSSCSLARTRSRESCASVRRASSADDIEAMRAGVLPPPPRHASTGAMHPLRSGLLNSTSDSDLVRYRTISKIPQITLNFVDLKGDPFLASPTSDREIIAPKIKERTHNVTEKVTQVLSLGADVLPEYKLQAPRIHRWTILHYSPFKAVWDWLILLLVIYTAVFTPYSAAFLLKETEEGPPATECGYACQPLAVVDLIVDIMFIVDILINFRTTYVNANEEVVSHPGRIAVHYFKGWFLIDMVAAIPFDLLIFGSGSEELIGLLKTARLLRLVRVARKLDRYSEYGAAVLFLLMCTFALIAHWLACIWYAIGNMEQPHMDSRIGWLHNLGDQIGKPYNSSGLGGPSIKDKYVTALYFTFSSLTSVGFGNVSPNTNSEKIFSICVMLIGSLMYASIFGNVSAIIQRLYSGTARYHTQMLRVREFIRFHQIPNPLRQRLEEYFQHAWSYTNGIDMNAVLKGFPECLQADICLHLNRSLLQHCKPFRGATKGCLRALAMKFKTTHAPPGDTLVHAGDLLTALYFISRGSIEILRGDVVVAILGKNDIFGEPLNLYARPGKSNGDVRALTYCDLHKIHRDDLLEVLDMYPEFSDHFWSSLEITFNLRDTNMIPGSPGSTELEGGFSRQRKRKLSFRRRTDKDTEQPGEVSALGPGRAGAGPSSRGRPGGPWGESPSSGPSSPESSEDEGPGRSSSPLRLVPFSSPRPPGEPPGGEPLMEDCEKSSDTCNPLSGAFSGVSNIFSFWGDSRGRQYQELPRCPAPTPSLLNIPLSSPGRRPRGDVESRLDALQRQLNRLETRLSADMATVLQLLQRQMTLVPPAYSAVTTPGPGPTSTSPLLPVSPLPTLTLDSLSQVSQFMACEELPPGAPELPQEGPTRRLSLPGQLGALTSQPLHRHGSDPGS
With `CN1CCN(C(=O)C2C3C=CC(C3)C2C(=O)O)CC1` (centres unmarked) the “hERG current change (%, negative = inhibition) at 1uM” value was 5.05%.
With `CNC(=S)N(Cc1cccs1)Cc1cc2cc(OC)c(OC)cc2[nH]c1=O` the “hERG current change (%, negative = inhibition) at 1uM” value was 1.23%.
In the case of `COc1ccc(C(=O)n2nc(C)cc2Nc2ccccc2)cc1`, the “hERG current change (%, negative = inhibition) at 1uM” value is reported as 12.7%.
`C[C@@H]1CCC[C@@]2(O[C@@H](CCO)C[C@@H](O)[C@@H]2O)O1` was tested, and the “hERG current change (%, negative = inhibition) at 1uM” value was 7.36%.
With `COc1ccc(-c2ccc(CCC(=O)O)n2-c2ccccc2O)cc1` the “hERG current change (%, negative = inhibition) at 1uM” value was 13.7%.
`CCc1ccc(Oc2ncnc(N)c2[N+](=O)[O-])cc1` was tested, and the “hERG current change (%, negative = inhibition) at 1uM” value was 10.8%.
`O=c1[nH]c(-c2cccnc2)nc2sc(-c3ccccc3)cc12` was tested, and the “hERG current change (%, negative = inhibition) at 1uM” value was 8.73%.
With `COc1ccc(-c2ccc(OC)cc2C(=O)O)cc1` the “hERG current change (%, negative = inhibition) at 1uM” value was 2.93%.
For `CCN1CCc2c(sc(NC(=S)NC(=O)c3ccc(Cl)cc3)c2C(N)=O)C1`, the “hERG current change (%, negative = inhibition) at 1uM” value was 0.909%.
With `Cc1ccc(-n2cc(-c3ccccc3)c3c(NN4CCOCC4)ncnc32)cc1` the “hERG current change (%, negative = inhibition) at 1uM” value was 6.63%.
For `CCOC(=O)c1cccc(NC(=O)c2ccc3c(c2)C(=O)N(CC2CCCO2)C3=O)c1` (centres unmarked), the “hERG current change (%, negative = inhibition) at 1uM” value was -2.27%.
In the case of `COc1cccc(NC(=O)COC(=O)c2nc(Cl)ccc2Cl)c1`, the “hERG current change (%, negative = inhibition) at 1uM” value is reported as 17.6%.
For `O=C(c1ccc(CS(=O)(=O)c2ccc(Br)cc2)o1)N1CCN(c2ccccn2)CC1`, the “hERG current change (%, negative = inhibition) at 1uM” value was -8.42%.
With `CCN(CC)C(=O)C(=O)Nc1ccc(F)c(Cl)c1` the “hERG current change (%, negative = inhibition) at 1uM” value was 11.7%.
For `Nc1nonc1C(=O)NCCNS(=O)(=O)c1ccc(F)cc1`, the “hERG current change (%, negative = inhibition) at 1uM” value was 11.5%.
In the case of `CC1=C(C(=O)OCc2ccccc2)C(c2ccsc2)C(C#N)=C(N)O1` (centres unmarked), the “hERG current change (%, negative = inhibition) at 1uM” value is reported as -5.08%.
With `CC1(c2nnc(-c3ccc(F)cc3)o2)CC(c2c(Cl)cccc2Cl)=NO1` (centres unmarked) the “hERG current change (%, negative = inhibition) at 1uM” value was -4.95%.
For `COc1ccc(C(=O)CCNc2ccc(C)c(Cl)c2)cc1`, the “hERG current change (%, negative = inhibition) at 1uM” value was -2.3%.
`Brc1ccc(COc2cccc3cccnc23)cc1` was tested, and the “hERG current change (%, negative = inhibition) at 1uM” value was 9.22%.
For `CCOC(=O)N1CCN(C(=O)/C=C/c2ccc(OC)cc2)CC1`, the “hERG current change (%, negative = inhibition) at 1uM” value was -0.69%.
For `CCNC(=O)c1sc(=S)n(CC)c1N`, the “hERG current change (%, negative = inhibition) at 1uM” value was 4.57%.
`CC(=O)c1ccc2c(ccc3ccccc32)c1` was tested, and the “hERG current change (%, negative = inhibition) at 1uM” value was 20.6%.
For `Cc1cc(N/C(=N/S(=O)(=O)c2ccc(F)cc2)c2ccccc2)n(-c2ccccc2)n1`, the “hERG current change (%, negative = inhibition) at 1uM” value was 12.9%.
In the case of `C[C@H]1O[C@H](O[C@H]2[C@H](O)[C@@H](O)[C@@H](O[C@H]3[C@H](O)[C@@H](O)C(O)O[C@@H]3CO)O[C@@H]2CO)[C@H](O)[C@@H](O)[C@@H]1N[C@H]1C=C(CO)[C@@H](O)[C@H](O)[C@H]1O` (some centres unmarked), the “hERG current change (%, negative = inhibition) at 1uM” value is reported as 1.89%.
For `COC(=O)COc1ccc(S(=O)(=O)NCCC2=CCCCC2)cc1`, the “hERG current change (%, negative = inhibition) at 1uM” value was 12.4%.
For `CCCc1nc(SCC(=O)N2CCN(c3ccccc3)CC2)c2c(=O)n(C)c(=O)n(C)c2n1`, the “hERG current change (%, negative = inhibition) at 1uM” value was 8.48%.
With `COC(=O)c1ccc(Sc2ccc(F)cc2)c(N)c1` the “hERG current change (%, negative = inhibition) at 1uM” value was 5.18%.
With `COc1ccc(NC(=O)C2=Cc3ccccc3OC2)cc1` the “hERG current change (%, negative = inhibition) at 1uM” value was 10.4%.
For `CSc1ccc2[nH]c(=O)cc(C)c2c1`, the “hERG current change (%, negative = inhibition) at 1uM” value was 3.93%.
With `O=C(NC1CCCCC1)c1ccc(NS(=O)(=O)c2cccc3cccnc23)cc1` the “hERG current change (%, negative = inhibition) at 1uM” value was 12.5%.
`COc1ccc(NC(=O)Cn2c(=O)n(CC(=O)NCc3ccco3)c(=O)c3ccccc32)cc1` was tested, and the “hERG current change (%, negative = inhibition) at 1uM” value was 18.5%.
In the case of `COC(=O)CSC1=C(C#N)C(c2ccc(Cl)cc2)C(C(=O)OC)C(=O)N1` (centres unmarked), the “hERG current change (%, negative = inhibition) at 1uM” value is reported as 7.42%.
`O=C(Nc1cccc(F)c1)N1CCCCCC1` was tested, and the “hERG current change (%, negative = inhibition) at 1uM” value was 12%.
In the case of `Br.c1ccc(C2CNCc3c2ccc2ccccc32)cc1` (centres unmarked), the “hERG current change (%, negative = inhibition) at 1uM” value is reported as 1.84%.
With `Cc1ccccc1NC(=O)c1cccc(NC(=O)c2ccccc2C(=O)O)c1` the “hERG current change (%, negative = inhibition) at 1uM” value was 14.3%.
For `COc1cccc(/C=C/c2[nH]c(=O)[nH]c(=O)c2[N+](=O)[O-])c1O`, the “hERG current change (%, negative = inhibition) at 1uM” value was 0.313%.
For `COc1ccc(-c2cn(Cc3ccc(C(=O)NCc4ccc(C)cc4)cc3)c(C(C)N)n2)cc1` (centres unmarked), the “hERG current change (%, negative = inhibition) at 1uM” value was 7.87%.
With `N#C/C(=C\c1cn(Cc2ccc(C#N)cc2)c2ccccc12)C(=O)NCc1cccs1` the “hERG current change (%, negative = inhibition) at 1uM” value was 13.5%.
For `COc1cccc(C(=O)c2cc3ccc(O)cc3oc2=O)c1`, the “hERG current change (%, negative = inhibition) at 1uM” value was -18.3%.
With `CC(NC(=O)c1ccc2c(c1)OCCO2)C(=O)O` (centres unmarked) the “hERG current change (%, negative = inhibition) at 1uM” value was 2.86%.
In the case of `Cl.Clc1cccc(Nc2nc(N3CCOCC3)nc(N3CCOCC3)n2)c1`, the “hERG current change (%, negative = inhibition) at 1uM” value is reported as 7.49%.
For `O=C(Nc1ccc(Oc2ccccc2)nc1)C1CCCCN1Cc1ccco1` (centres unmarked), the “hERG current change (%, negative = inhibition) at 1uM” value was -5.22%.
In the case of `CCN(CC)C(=O)Cn1nc(-c2ccncc2)nc1SCC(=O)Nc1ccc(OC)cc1`, the “hERG current change (%, negative = inhibition) at 1uM” value is reported as 13.2%.
With `CCN(CC)CCn1c2c(c(SCC(=O)Nc3ccccc3Cl)nc1=O)CCCC2` the “hERG current change (%, negative = inhibition) at 1uM” value was -24.9%.
With `Cc1ccc2c(CC(=O)N3CCN(S(=O)(=O)c4cccs4)CC3)coc2c1` the “hERG current change (%, negative = inhibition) at 1uM” value was 11.1%.
`COC(=O)C(NC(=O)CCC(=O)N[C@@H](C(=O)OC)c1ccccc1)c1ccccc1` (some centres unmarked) was tested, and the “hERG current change (%, negative = inhibition) at 1uM” value was 12.4%.
`CCCCN(C(=O)c1cnc2n(c1=O)CCS2)c1ccccc1` was tested, and the “hERG current change (%, negative = inhibition) at 1uM” value was 14.9%.
For `Cc1cc2ccccc2nc1SCC(=O)N1CCCC1`, the “hERG current change (%, negative = inhibition) at 1uM” value was 1%.
In the case of `COc1ccc(/C=N/N2CCN(c3ccccc3OC)CC2)cc1OC`, the “hERG current change (%, negative = inhibition) at 1uM” value is reported as -0.622%.
In the case of `Cc1cc(C)c(NC(=O)C2CC(=O)N(C(C)C)C2)c(C)c1` (centres unmarked), the “hERG current change (%, negative = inhibition) at 1uM” value is reported as 12.1%.
For `CCN(C(=O)COC(=O)c1ccc(OC)c(S(=O)(=O)N(C)Cc2ccccc2)c1)C1CCS(=O)(=O)C1` (centres unmarked), the “hERG current change (%, negative = inhibition) at 1uM” value was 13%.
For `CCOc1ccccc1NC(=O)CCNS(=O)(=O)c1ccc(NC(C)=O)cc1`, the “hERG current change (%, negative = inhibition) at 1uM” value was -0.647%.
In the case of `Cc1ccsc1/C=N/NC(=O)Cc1ccc([N+](=O)[O-])cc1`, the “hERG current change (%, negative = inhibition) at 1uM” value is reported as 15.6%.
For `Cc1nnc(SCC(=O)Nc2nccs2)n1C(C)C`, the “hERG current change (%, negative = inhibition) at 1uM” value was 8.55%.
For `COCCN=c1scc(-c2cc(OC)ccc2OC)n1/N=C/c1c[nH]c2ccccc12`, the “hERG current change (%, negative = inhibition) at 1uM” value was 3.15%.
In the case of `O=C(Nc1ccc(F)cc1)N1CCOCC1`, the “hERG current change (%, negative = inhibition) at 1uM” value is reported as 19.8%.
